In the supplement of paper PMC4604168 (melanoma cell lines):
This is one part of the list. Repeats are few or missing, and single values can be far off.

test system: WM115; test: cell count relative to DMSO control; melanoma cells; higher = more viable cells; details: library dose: low library concentration; 72 h
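Further: cell number obtained by counting DAPI-stained nuclei in high-throughput microscope images with image analysis software, screen run in 1,536-well plates.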

Q: How did the cell count turn out when C/C(O)=C(\C#N)C(=O)Nc1cc(Br)ccc1Br + CC(C)CCN1c2nc(Nc3cc(F)c(O)c(F)c3)ncc2N(C)C(=O)C1C [BID1870] (first compound 2 µM, partner dose 0.2 µM) was run?
A: 87.4%

Q: How did the cell count turn out when COc1ccc(C2=N[C@@H](c3ccc(Cl)cc3)[C@@H](c3ccc(Cl)cc3)N2C(=O)N2CCNC(=O)C2)c(OC(C)C)c1 [Nutlin-3] + N.N.[Cl][Pt][Cl] [cisplatin] (first compound 0.1 µM, partner dose 1.6 µM) was run?
A: 91.4%

Q: For O=C(Nc1cc(C(F)(F)F)cc(C(F)(F)F)c1)c1cc(Cl)ccc1O + C/C(O)=C(\C#N)C(=O)Nc1cc(Br)ccc1Br [LFM-A13] (first compound 0.016 µM, partner dose 2 µM), which cell count is on record?
A: 93.7%

Q: With Cc1cc(SCc2sc(-c3ccc(C(F)(F)F)c(F)c3)nc2C)ccc1OCC(=O)O + C/C(O)=C(\C#N)C(=O)Nc1cc(Br)ccc1Br [LFM-A13] (first compound 2 µM, partner dose 2 µM) as the compound, how does the cell count read?
A: 99.8%

Q: How did the cell count turn out when CCCCCCCCCCCCCCCCCCOP(=O)([O-])OC1CC[N+](C)(C)CC1 [Perifosine] + C[As](C)SC[C@H](NC(=O)CC[C@H](N)C(=O)O)C(=O)NCC(=O)O [Darinaparsin] (first compound 0.4 µM, partner dose 0.4 µM) was run?
A: 102%

Q: With O=C(/C=C/c1cccnc1)NCCCCC1CCN(C(=O)c2ccccc2)CC1 + N.N.[Cl][Pt][Cl] [cisplatin] (first compound 0.01 µM, partner dose 1.6 µM) as the compound, how does the cell count read?
A: 98.8%

Q: Which cell count does the source give for COc1ccc(-c2ccc3c(N4CCOCC4)nc(N4C[C@@H](C)O[C@@H](C)C4)nc3n2)cc1CO + O=C(Oc1ccc([N+](=O)[O-])cc1)N1CCC(C(O)(c2ccc3c(c2)OCO3)c2ccc3c(c2)OCO3)CC1 [JZL184] (first compound 0.02 µM, partner dose 1 µM) here?
A: 105%

Q: With C=C(c1ccc(C(=O)O)cc1)c1cc2c(cc1C)C(C)(C)CCC2(C)C [Bexarotene] + C[As](C)SC[C@H](NC(=O)CC[C@H](N)C(=O)O)C(=O)NCC(=O)O [Darinaparsin] (first compound 2 µM, partner dose 0.4 µM) as the compound, how does the cell count read?
A: 99.3%

Q: With CC1(C)CCC(c2ccc(Cl)cc2)=C(CN2CCN(c3ccc(C(=O)NS(=O)(=O)c4ccc(N[C@H](CCN5CCOCC5)CSc5ccccc5)c(S(=O)(=O)C(F)(F)F)c4)cc3)CC2)C1 + O=C(Oc1ccc([N+](=O)[O-])cc1)N1CCC(C(O)(c2ccc3c(c2)OCO3)c2ccc3c(c2)OCO3)CC1 [JZL184] (first compound 0.4 µM, partner dose 1 µM) as the compound, how does the cell count read?
A: 79.5%

Q: For CC(=O)O[C@@]12CO[C@@H]1C[C@H](O)[C@@]1(C)C(=O)[C@H](O)C3=C(C)[C@@H](OC(=O)[C@H](O)[C@@H](NC(=O)OC(C)(C)C)c4ccccc4)C[C@@](O)([C@@H](OC(=O)c4ccccc4)[C@H]21)C3(C)C [Docetaxel] + C/C(O)=C(\C#N)C(=O)Nc1cc(Br)ccc1Br [LFM-A13] (first compound 0.0001 µM, partner dose 2 µM), which cell count is on record?
A: 58.6%

Q: How did the cell count turn out when CC[C@]1(O)C[C@H]2CN(CCc3c([nH]c4ccccc34)[C@@](C(=O)OC)(c3cc4c(cc3OC)N(C=O)[C@H]3[C@@](O)(C(=O)OC)[C@H](OC(C)=O)[C@]5(CC)C=CCN6CC[C@]43[C@@H]65)C2)C1 [vincristine] + N.N.[Cl][Pt][Cl] [cisplatin] (first compound 0.0001 µM, partner dose 1.6 µM) was run?
A: 98.3%

Q: With O=c1[nH]nc(Sc2ncc([N+](=O)[O-])s2)n1-c1ccc2c(c1)OCCO2 + O=C(Oc1ccc([N+](=O)[O-])cc1)N1CCC(C(O)(c2ccc3c(c2)OCO3)c2ccc3c(c2)OCO3)CC1 [JZL184] (first compound 0.2 µM, partner dose 1 µM) as the compound, how does the cell count read?
A: 94%

Q: Which cell count does the source give for O=S(=O)(c1ccccc1)N(CC(F)(F)F)c1ccc(C(O)(C(F)(F)F)C(F)(F)F)cc1 + C/C(O)=C(\C#N)C(=O)Nc1cc(Br)ccc1Br [LFM-A13] (first compound 1.4 µM, partner dose 2 µM) here?
A: 100%

Q: With O=C(Nc1cc(C(F)(F)F)cc(C(F)(F)F)c1)c1cc(Cl)ccc1O + O=C(Oc1ccc([N+](=O)[O-])cc1)N1CCC(C(O)(c2ccc3c(c2)OCO3)c2ccc3c(c2)OCO3)CC1 [JZL184] (first compound 0.016 µM, partner dose 1 µM) as the compound, how does the cell count read?
A: 91.3%

Q: COc1cc([C@@H]2c3cc4c(cc3[C@@H](O[C@@H]3O[C@@H]5CO[C@@H](C)O[C@H]5[C@H](O)[C@H]3O)[C@H]3COC(=O)[C@H]23)OCO4)cc(OC)c1O [etoposide] + Cn1cc(C2=C(c3cn(C4CCN(Cc5ccccn5)CC4)c4ccccc34)C(=O)NC2=O)c2ccccc21 [Enzastaurin] (first compound 0.02 µM, partner dose 0.8 µM) was tested. Which cell count did it give?
A: 100%

Q: O=C(Nc1cccc(Cl)c1)Nc1ncc(CCNc2ncnc3ccsc23)s1 + C/C(O)=C(\C#N)C(=O)Nc1cc(Br)ccc1Br [LFM-A13] (first compound 0.0008 µM, partner dose 2 µM) was tested. Which cell count did it give?
A: 67.6%

Q: CCN(CC)CCNC(=O)c1c(C)[nH]c(/C=C2\C(=O)Nc3ccc(F)cc32)c1C [sunitinib] + Cc1cc(SCc2sc(-c3ccc(C(F)(F)F)c(F)c3)nc2C)ccc1OCC(=O)O [GW0742] (first compound 0.4 µM, partner dose 2 µM) was tested. Which cell count did it give?
A: 108%

Q: With O=C(Oc1ccc([N+](=O)[O-])cc1)N1CCC(C(O)(c2ccc3c(c2)OCO3)c2ccc3c(c2)OCO3)CC1 + CC(C)CCN1c2nc(Nc3cc(F)c(O)c(F)c3)ncc2N(C)C(=O)C1C [BID1870] (first compound 1 µM, partner dose 0.2 µM) as the compound, how does the cell count read?
A: 98%

Q: NC1(c2ccc(-c3nc4ccn5c(=O)[nH]nc5c4cc3-c3ccccc3)cc2)CCC1 + N.N.[Cl][Pt][Cl] [cisplatin] (first compound 0.4 µM, partner dose 1.6 µM) was tested. Which cell count did it give?
A: 78.4%

Q: Which cell count does the source give for Cc1cc(SCc2sc(-c3ccc(C(F)(F)F)c(F)c3)nc2C)ccc1OCC(=O)O + O=c1cc(-c2cccc3c2Sc2ccccc2S3)oc(N2CCOCC2)c1 [KU55933] (first compound 2 µM, partner dose 1 µM) here?
A: 98.5%

Q: With Cc1cc(SCc2sc(-c3ccc(C(F)(F)F)c(F)c3)nc2C)ccc1OCC(=O)O + O=C(Oc1ccc([N+](=O)[O-])cc1)N1CCC(C(O)(c2ccc3c(c2)OCO3)c2ccc3c(c2)OCO3)CC1 [JZL184] (first compound 2 µM, partner dose 1 µM) as the compound, how does the cell count read?
A: 97.7%

Q: O=C(Nc1cc(C(F)(F)F)cc(C(F)(F)F)c1)c1cc(Cl)ccc1O + C[C@]12O[C@H](C[C@]1(O)CO)n1c3ccccc3c3c4c(c5c6ccccc6n2c5c31)CNC4=O [Lestaurtinib] (first compound 0.016 µM, partner dose 0.004 µM) was tested. Which cell count did it give?
A: 98.8%

Q: CCCCCCCCc1ccc(CCC(N)(CO)CO)cc1 [fingolimod] + N.N.[Cl][Pt][Cl] [cisplatin] (first compound 2 µM, partner dose 1.6 µM) was tested. Which cell count did it give?
A: 91.9%

Q: With O=S(=O)(c1ccccc1)N(CC(F)(F)F)c1ccc(C(O)(C(F)(F)F)C(F)(F)F)cc1 + O=C(Oc1ccc([N+](=O)[O-])cc1)N1CCC(C(O)(c2ccc3c(c2)OCO3)c2ccc3c(c2)OCO3)CC1 [JZL184] (first compound 1.4 µM, partner dose 1 µM) as the compound, how does the cell count read?
A: 87.7%

Q: With O=C(/C=C/c1cccnc1)NCCCCC1CCN(C(=O)c2ccccc2)CC1 + O=C(Oc1ccc([N+](=O)[O-])cc1)N1CCC(C(O)(c2ccc3c(c2)OCO3)c2ccc3c(c2)OCO3)CC1 [JZL184] (first compound 0.01 µM, partner dose 1 µM) as the compound, how does the cell count read?
A: 82.8%

Q: How did the cell count turn out when NC1(c2ccc(-c3nc4ccn5c(=O)[nH]nc5c4cc3-c3ccccc3)cc2)CCC1 + Cc1cc(SCc2sc(-c3ccc(C(F)(F)F)c(F)c3)nc2C)ccc1OCC(=O)O [GW0742] (first compound 0.4 µM, partner dose 2 µM) was run?
A: 75.5%

Q: How did the cell count turn out when NC1(c2ccc(-c3nc4ccn5c(=O)[nH]nc5c4cc3-c3ccccc3)cc2)CCC1 + C[As](C)SC[C@H](NC(=O)CC[C@H](N)C(=O)O)C(=O)NCC(=O)O [Darinaparsin] (first compound 0.4 µM, partner dose 0.4 µM) was run?
A: 92%

Q: How did the cell count turn out when COc1ccc(C2=N[C@@H](c3ccc(Cl)cc3)[C@@H](c3ccc(Cl)cc3)N2C(=O)N2CCNC(=O)C2)c(OC(C)C)c1 [Nutlin-3] + O=C(Oc1ccc([N+](=O)[O-])cc1)N1CCC(C(O)(c2ccc3c(c2)OCO3)c2ccc3c(c2)OCO3)CC1 [JZL184] (first compound 0.1 µM, partner dose 1 µM) was run?
A: 78.6%

Q: O=C(Oc1ccc([N+](=O)[O-])cc1)N1CCC(C(O)(c2ccc3c(c2)OCO3)c2ccc3c(c2)OCO3)CC1 + CCCCCCCCCCCC1=C(O)C(=O)C=C(O)C1=O [Embelin] (first compound 1 µM, partner dose 1.2 µM) was tested. Which cell count did it give?
A: 107%

Q: For COc1ccc(C2=N[C@@H](c3ccc(Cl)cc3)[C@@H](c3ccc(Cl)cc3)N2C(=O)N2CCNC(=O)C2)c(OC(C)C)c1 [Nutlin-3] + C[C@]12O[C@H](C[C@]1(O)CO)n1c3ccccc3c3c4c(c5c6ccccc6n2c5c31)CNC4=O [Lestaurtinib] (first compound 0.1 µM, partner dose 0.004 µM), which cell count is on record?
A: 90.3%
